The values below come from publication PMC12820563.

This is one part of the list. The list includes weakly bound sequences.

The target of the experiment is T1, MBP-FoxP3dN (UniProt Q99JB6).
T1 sequence: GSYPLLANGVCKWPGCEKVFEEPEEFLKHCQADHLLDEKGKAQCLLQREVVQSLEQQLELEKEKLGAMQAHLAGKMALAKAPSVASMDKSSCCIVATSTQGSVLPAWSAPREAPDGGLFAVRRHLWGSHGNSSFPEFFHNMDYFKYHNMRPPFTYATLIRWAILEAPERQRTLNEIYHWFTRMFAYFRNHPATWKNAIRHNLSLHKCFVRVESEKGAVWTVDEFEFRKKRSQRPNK
In words: PD-seq (MBP pull-down with sequencing). As to conditions: 20 mM Tris-HCl pH 7.5, 100 mM NaCl, 1.5 mM MgCl2, 0.4 uM protein, 0.1 uM dsDNA library, 30 min, room temperature, amylose pull-down; high values mean tight binding; double strand, one strand shown.
Take “GATGATTGTTCTCCCAGCTGATGAATTATGTTAGTCGAGTAAACAAATTTTCCTAATCTTTCTGTTCAAGCGCCATCTAC”: the binding signal (RPM ratio (pull-down/input)) was found to be 5.81. For “GATGATTGTTCTCCCAGCTGATGAATTGGAACACTCGAGTAAACAAATTTTCCTAATCTTTCTGTTCAAGCGCCATCTAC”, the binding signal (RPM ratio (pull-down/input)) came out at 0.486. Consider “GATGATTGTTCTCCCAGCTGATGAATTTGCGCTCTCGAGTAAACAAATTTTCCTAATCTTTCTGTTCAAGCGCCATCTAC”, for which the binding signal (RPM ratio (pull-down/input)) amounted to 0.911. In the case of “GATGATTGTTCTCCCAGCTGATGAATTTGCGATATCGAGTAAACAAATTTTCCTAATCTTTCTGTTCAAGCGCCATCTAC” it was 1.04; in that of “GATGATTGTTCTCCCAGCTGATGAATTCGATCTATCGAGTAAACAAATTTTCCTAATCTTTCTGTTCAAGCGCCATCTAC”, 0.345. In the case of “GATGATTGTTCTCCCAGCTGATGAATTGGTTTACTCGAGTAAACAAATTTTCCTAATCTTTCTGTTCAAGCGCCATCTAC” it was 4.7; in that of “GATGATTGTTCTCCCAGCTGATGAATTCTGGGAATCGAGTAAACAAATTTTCCTAATCTTTCTGTTCAAGCGCCATCTAC”, 0.225. For “GATGATTGTTCTCCCAGCTGATGAATTGCTTAGTTCGAGTAAACAAATTTTCCTAATCTTTCTGTTCAAGCGCCATCTAC”, the binding signal (RPM ratio (pull-down/input)) came to 0.943.

In the case of “GATGATTGTTCTCCCAGCTGATGAATTCTACCGCTCGAGTAAACAAATTTTCCTAATCTTTCTGTTCAAGCGCCATCTAC”, the binding signal (RPM ratio (pull-down/input)) stood at 0.281. In the case of “GATGATTGTTCTCCCAGCTGATGAATTGATTTAGTCGAGTAAACAAATTTTCCTAATCTTTCTGTTCAAGCGCCATCTAC” it was 1.58. Under “GATGATTGTTCTCCCAGCTGATGAATTGATCAGCTCGAGTAAACAAATTTTCCTAATCTTTCTGTTCAAGCGCCATCTAC” stands 0.287.

As to “GATGATTGTTCTCCCAGCTGATGAATTTTCCGGTTCGAGTAAACAAATTTTCCTAATCTTTCTGTTCAAGCGCCATCTAC”, the binding signal (RPM ratio (pull-down/input)) amounted to 0.213. Under “GATGATTGTTCTCCCAGCTGATGAATTTAACTGATCGAGTAAACAAATTTTCCTAATCTTTCTGTTCAAGCGCCATCTAC” stands 0.308. Under “GATGATTGTTCTCCCAGCTGATGAATTGTTCGGCTCGAGTAAACAAATTTTCCTAATCTTTCTGTTCAAGCGCCATCTAC” stands 0.297; under “GATGATTGTTCTCCCAGCTGATGAATTTGGGATTTCGAGTAAACAAATTTTCCTAATCTTTCTGTTCAAGCGCCATCTAC”, 0.407.

As to “GATGATTGTTCTCCCAGCTGATGAATTTCCCGGTTCGAGTAAACAAATTTTCCTAATCTTTCTGTTCAAGCGCCATCTAC”, the binding signal (RPM ratio (pull-down/input)) stood at 0.209. In the case of “GATGATTGTTCTCCCAGCTGATGAATTGTCGATGTCGAGTAAACAAATTTTCCTAATCTTTCTGTTCAAGCGCCATCTAC” it was 0.48.

Consider “GATGATTGTTCTCCCAGCTGATGAATTGCTAATATCGAGTAAACAAATTTTCCTAATCTTTCTGTTCAAGCGCCATCTAC”, for which the binding signal (RPM ratio (pull-down/input)) was 0.872. In the case of “GATGATTGTTCTCCCAGCTGATGAATTCCATAAATCGAGTAAACAAATTTTCCTAATCTTTCTGTTCAAGCGCCATCTAC” it was 0.233. In the case of “GATGATTGTTCTCCCAGCTGATGAATTGCCGCGTTCGAGTAAACAAATTTTCCTAATCTTTCTGTTCAAGCGCCATCTAC” it was 1.88; in that of “GATGATTGTTCTCCCAGCTGATGAATTTATGACATCGAGTAAACAAATTTTCCTAATCTTTCTGTTCAAGCGCCATCTAC”, 0.882.

“GATGATTGTTCTCCCAGCTGATGAATTATGGGGCTCGAGTAAACAAATTTTCCTAATCTTTCTGTTCAAGCGCCATCTAC”: the binding signal (RPM ratio (pull-down/input)) was 0.439.

As for “GATGATTGTTCTCCCAGCTGATGAATTTTGTAAGTCGAGTAAACAAATTTTCCTAATCTTTCTGTTCAAGCGCCATCTAC”, the binding signal (RPM ratio (pull-down/input)) amounted to 1.71.

For the sequence “GATGATTGTTCTCCCAGCTGATGAATTCAAAGAGTCGAGTAAACAAATTTTCCTAATCTTTCTGTTCAAGCGCCATCTAC”, the binding signal (RPM ratio (pull-down/input)) was 0.196. Under “GATGATTGTTCTCCCAGCTGATGAATTTGCGAGCTCGAGTAAACAAATTTTCCTAATCTTTCTGTTCAAGCGCCATCTAC” stands 0.663; under “GATGATTGTTCTCCCAGCTGATGAATTCCAAACTTCGAGTAAACAAATTTTCCTAATCTTTCTGTTCAAGCGCCATCTAC”, 0.292; under “GATGATTGTTCTCCCAGCTGATGAATTGGCTGTTTCGAGTAAACAAATTTTCCTAATCTTTCTGTTCAAGCGCCATCTAC”, 1.71. In the case of “GATGATTGTTCTCCCAGCTGATGAATTAGAGACATCGAGTAAACAAATTTTCCTAATCTTTCTGTTCAAGCGCCATCTAC” it was 0.458. In the case of “GATGATTGTTCTCCCAGCTGATGAATTGGTTCGATCGAGTAAACAAATTTTCCTAATCTTTCTGTTCAAGCGCCATCTAC” it was 0.258; in that of “GATGATTGTTCTCCCAGCTGATGAATTGTTCGAGTCGAGTAAACAAATTTTCCTAATCTTTCTGTTCAAGCGCCATCTAC”, 0.354; in that of “GATGATTGTTCTCCCAGCTGATGAATTGGGTTTATCGAGTAAACAAATTTTCCTAATCTTTCTGTTCAAGCGCCATCTAC”, 2.06.

“GATGATTGTTCTCCCAGCTGATGAATTCCCTTCTTCGAGTAAACAAATTTTCCTAATCTTTCTGTTCAAGCGCCATCTAC”: the binding signal (RPM ratio (pull-down/input)) was 0.278. In the case of “GATGATTGTTCTCCCAGCTGATGAATTGTCTCACTCGAGTAAACAAATTTTCCTAATCTTTCTGTTCAAGCGCCATCTAC” it was 0.421.

As to “GATGATTGTTCTCCCAGCTGATGAATTGATTGGTTCGAGTAAACAAATTTTCCTAATCTTTCTGTTCAAGCGCCATCTAC”, the binding signal (RPM ratio (pull-down/input)) worked out at 2.6. As to “GATGATTGTTCTCCCAGCTGATGAATTTAGGAATTCGAGTAAACAAATTTTCCTAATCTTTCTGTTCAAGCGCCATCTAC”, the binding signal (RPM ratio (pull-down/input)) is 0.763. Under “GATGATTGTTCTCCCAGCTGATGAATTCGTGTAATCGAGTAAACAAATTTTCCTAATCTTTCTGTTCAAGCGCCATCTAC” stands 1.04; under “GATGATTGTTCTCCCAGCTGATGAATTTGTCGAGTCGAGTAAACAAATTTTCCTAATCTTTCTGTTCAAGCGCCATCTAC”, 1.08. Under “GATGATTGTTCTCCCAGCTGATGAATTCTCATGCTCGAGTAAACAAATTTTCCTAATCTTTCTGTTCAAGCGCCATCTAC” stands 0.369. Regarding “GATGATTGTTCTCCCAGCTGATGAATTAGCATTGTCGAGTAAACAAATTTTCCTAATCTTTCTGTTCAAGCGCCATCTAC”, the binding signal (RPM ratio (pull-down/input)) was 3.44. Under “GATGATTGTTCTCCCAGCTGATGAATTGCGTCTGTCGAGTAAACAAATTTTCCTAATCTTTCTGTTCAAGCGCCATCTAC” stands 1.19.

On to “GATGATTGTTCTCCCAGCTGATGAATTCCAGACCTCGAGTAAACAAATTTTCCTAATCTTTCTGTTCAAGCGCCATCTAC”, for which the binding signal (RPM ratio (pull-down/input)) came to 0.198. On to “GATGATTGTTCTCCCAGCTGATGAATTGCATAGATCGAGTAAACAAATTTTCCTAATCTTTCTGTTCAAGCGCCATCTAC”, for which the binding signal (RPM ratio (pull-down/input)) came to 0.657.

In the case of “GATGATTGTTCTCCCAGCTGATGAATTGGGCAACTCGAGTAAACAAATTTTCCTAATCTTTCTGTTCAAGCGCCATCTAC”, the binding signal (RPM ratio (pull-down/input)) was 4.1. In the case of “GATGATTGTTCTCCCAGCTGATGAATTGGATCAGTCGAGTAAACAAATTTTCCTAATCTTTCTGTTCAAGCGCCATCTAC” it was 0.229; in that of “GATGATTGTTCTCCCAGCTGATGAATTTACATCCTCGAGTAAACAAATTTTCCTAATCTTTCTGTTCAAGCGCCATCTAC”, 0.723. In the case of “GATGATTGTTCTCCCAGCTGATGAATTATAGTAGTCGAGTAAACAAATTTTCCTAATCTTTCTGTTCAAGCGCCATCTAC” it was 0.584. As for “GATGATTGTTCTCCCAGCTGATGAATTGTGGTCATCGAGTAAACAAATTTTCCTAATCTTTCTGTTCAAGCGCCATCTAC”, the binding signal (RPM ratio (pull-down/input)) turned out to be 1.14. For the sequence “GATGATTGTTCTCCCAGCTGATGAATTTGACTAGTCGAGTAAACAAATTTTCCTAATCTTTCTGTTCAAGCGCCATCTAC”, the binding signal (RPM ratio (pull-down/input)) is 0.36. Under “GATGATTGTTCTCCCAGCTGATGAATTTAAACTATCGAGTAAACAAATTTTCCTAATCTTTCTGTTCAAGCGCCATCTAC” stands 0.454; under “GATGATTGTTCTCCCAGCTGATGAATTCTCGAACTCGAGTAAACAAATTTTCCTAATCTTTCTGTTCAAGCGCCATCTAC”, 0.193; under “GATGATTGTTCTCCCAGCTGATGAATTCCTGCGATCGAGTAAACAAATTTTCCTAATCTTTCTGTTCAAGCGCCATCTAC”, 0.443.

Take “GATGATTGTTCTCCCAGCTGATGAATTTATGCTCTCGAGTAAACAAATTTTCCTAATCTTTCTGTTCAAGCGCCATCTAC”: the binding signal (RPM ratio (pull-down/input)) worked out at 1.54. In the case of “GATGATTGTTCTCCCAGCTGATGAATTTTAGAGATCGAGTAAACAAATTTTCCTAATCTTTCTGTTCAAGCGCCATCTAC” it was 0.22; in that of “GATGATTGTTCTCCCAGCTGATGAATTTTGGATCTCGAGTAAACAAATTTTCCTAATCTTTCTGTTCAAGCGCCATCTAC”, 0.327; in that of “GATGATTGTTCTCCCAGCTGATGAATTGTACTGTTCGAGTAAACAAATTTTCCTAATCTTTCTGTTCAAGCGCCATCTAC”, 0.855. For “GATGATTGTTCTCCCAGCTGATGAATTCAGAAGGTCGAGTAAACAAATTTTCCTAATCTTTCTGTTCAAGCGCCATCTAC”, the binding signal (RPM ratio (pull-down/input)) was found to be 0.187. As for “GATGATTGTTCTCCCAGCTGATGAATTCCTAAGTTCGAGTAAACAAATTTTCCTAATCTTTCTGTTCAAGCGCCATCTAC”, the binding signal (RPM ratio (pull-down/input)) was determined as 0.254. In the case of “GATGATTGTTCTCCCAGCTGATGAATTTTCCCCCTCGAGTAAACAAATTTTCCTAATCTTTCTGTTCAAGCGCCATCTAC” it was 0.157.

“GATGATTGTTCTCCCAGCTGATGAATTTCACGCATCGAGTAAACAAATTTTCCTAATCTTTCTGTTCAAGCGCCATCTAC”: the binding signal (RPM ratio (pull-down/input)) is 1.01. Under “GATGATTGTTCTCCCAGCTGATGAATTGCACGAGTCGAGTAAACAAATTTTCCTAATCTTTCTGTTCAAGCGCCATCTAC” stands 0.517. Under “GATGATTGTTCTCCCAGCTGATGAATTCAAAGGTTCGAGTAAACAAATTTTCCTAATCTTTCTGTTCAAGCGCCATCTAC” stands 0.196; under “GATGATTGTTCTCCCAGCTGATGAATTTAATCATTCGAGTAAACAAATTTTCCTAATCTTTCTGTTCAAGCGCCATCTAC”, 0.692; under “GATGATTGTTCTCCCAGCTGATGAATTGCGGCGATCGAGTAAACAAATTTTCCTAATCTTTCTGTTCAAGCGCCATCTAC”, 0.888.
